The other results are listed elsewhere or left out. At the low end of the ranking the order means little. Measured with an extract: partners may take part in the binding.

Consider 73 sequences from publication PMC10726135.

This test concerns the target T1, HNF4alpha2 (COS-7 nuclear extract) (UniProt P41235).
T1 sequence: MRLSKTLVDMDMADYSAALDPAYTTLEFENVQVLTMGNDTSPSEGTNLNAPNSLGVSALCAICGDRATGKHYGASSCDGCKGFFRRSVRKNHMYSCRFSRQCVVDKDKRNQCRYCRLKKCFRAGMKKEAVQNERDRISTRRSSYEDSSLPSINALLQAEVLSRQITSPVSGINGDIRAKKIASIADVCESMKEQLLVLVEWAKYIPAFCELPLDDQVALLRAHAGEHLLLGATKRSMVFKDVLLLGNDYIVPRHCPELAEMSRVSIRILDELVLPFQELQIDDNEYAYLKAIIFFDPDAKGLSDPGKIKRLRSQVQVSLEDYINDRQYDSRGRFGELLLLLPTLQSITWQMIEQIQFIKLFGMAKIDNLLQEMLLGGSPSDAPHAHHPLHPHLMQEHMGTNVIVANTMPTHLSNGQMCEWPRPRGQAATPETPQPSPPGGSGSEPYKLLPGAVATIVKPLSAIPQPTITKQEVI
As to the kind of experiment: protein-binding microarray. Particulars: COS-7 nuclear extract on double-stranded Agilent 4x180k PBM; binding buffer, salt, pH and temperature not given; high values mean tight binding; double strand, one strand shown; sequences stand for … in …GCCTAGGGAGATTAGAGTATCGGTCGA
Turning to CCACCCTCACAGCTCAATCCAACAAATAGA, the binding signal (log2 normalized intensity) is -1.12.
For the sequence CTTTGGCCAAGGGCAGTGTTTGCCCAGCTT, the binding signal (log2 normalized intensity) amounted to 0.106.
The value for GCCCTCCCCCAGAGAGAACAGTCCTACAAA was 2.08.
The value for CTGCCCAGACACACAATATTATGTTTTGTT was 1.01.
In the case of TGATTATTTGTGAAGGCATTATTGGTGAAA, the binding signal (log2 normalized intensity) amounted to 1.29.
As for GTGTTCTGCTGCCATTGGATGGAATGTTCT, the binding signal (log2 normalized intensity) is 1.78.
Consider GTACAGCCTTTGATCTACAGTCAGAGGCCT, for which the binding signal (log2 normalized intensity) is -1.15.
Take GCTTATCTCACTCCAAAGGCTGTTTGCACC: the binding signal (log2 normalized intensity) was 1.29.
The same measure for TGGGTTCAAAGAGCACATTCCTGCACCATA: 2.09; for TGCAAGAGAGCAAACTTCAAAGAAGCTGTT: -1.08; for CAGAAGACTACAAATTCCTCAATCCAGTCA: -1.04.
As for GGAAGAGGAAGCATCCTATAGGCCTATAAT, the binding signal (log2 normalized intensity) was -1.14.
As for TTGTGGCAGTGAGAACAGGTTCATTCTTTA, the binding signal (log2 normalized intensity) was found to be 0.513.
Regarding AGGCATACCTTTCTTATCATAAGTAAAAAG, the binding signal (log2 normalized intensity) is -0.0783.
For TGTGACAAGAAAGACCCAAGGCGTATGAAG, the binding signal (log2 normalized intensity) is -1.19.
With GCGTCATCAGTCCAGGAGGGTCACAAGTCC, the binding signal (log2 normalized intensity) came out at 2.26.
Turning to CTTCCAAGTCTCAGCACCTGTGCTTCACTC, the binding signal (log2 normalized intensity) was -0.874.
The value for CCTTATCTGAATTCCAGCATCACTAATGTC was 0.912.
In the case of GCCTCATTTCACCTTTGGTCTTTGGTGAAA, the binding signal (log2 normalized intensity) was 3.59.
For GTCCCCCGACCCGCCCGACTACAACAGCCT, the binding signal (log2 normalized intensity) was 5.04.
For CCACCTAGGCCGGTCAAGTCAGAGGCCCAG, the binding signal (log2 normalized intensity) was -0.935.
The value for GGACAGACACACCCTTCAGAGCTTGAAAAG was -1.1; that for AATACACAATCTGAAGTCCCCTGTGCTTTG was 1.93; that for CCACCACTGCTTCCTGCCCCCTGTGGTCAA was 4.46.
With GTGGGAAGGGATCAGAAATTGATTTGTAAC, the binding signal (log2 normalized intensity) stood at 0.0598.
For the sequence CAGGGTGGGGTCTCGCTGCTTCGGCCTTTG, the binding signal (log2 normalized intensity) came to 1.33.
For the sequence TACAGAATTCTCATGGAGGACTTTGGCCTT, the binding signal (log2 normalized intensity) came to 7.11.
Regarding TAAATCCCTGCCAAAATATGTCAAGTAGCT, the binding signal (log2 normalized intensity) is -1.18.
Consider CACAATGATAACAGCGTTTTCCCATTCATG, for which the binding signal (log2 normalized intensity) is -0.36.
For TCTCTGGGTCAAAGGTCATCGCACCGGCAG, the binding signal (log2 normalized intensity) turned out to be 7.15.
As to GAATGACTTTGGGGAAATGACCTTTGTCCA, the binding signal (log2 normalized intensity) was found to be 8.8.
The same measure for AGTATTTTCTGTCTAGGTGCCAGAATTGCT: -1.14.
The value for CCTAAATTCAAATGGACCCAAGCGGCCATT was 1.24; that for AAGACTCACATCTATCTCCCTACCCTCACC was 2.07.
Take CACACACCCCTCCACTGGACAGCAGCTACA: the binding signal (log2 normalized intensity) came to 1.55.
The value for CTGGCAGAGGGGATCAAGTGGCAATAAACT was -1.14; that for AATGTCTTTTAAATACATAGCTGGGATGAG was 0.646; that for TGAGGGAGCAAAGGGCATGGAGGATTTAGA was 1.85.
Consider TAGCTCCAGTTGGTTGCTAAGAGACAGCTC, for which the binding signal (log2 normalized intensity) was -0.894.
The value for TGCATTCCTTTGTTTATCTAACCCACATCC was 1.51; that for CCTTTTTAATGTTTCATTAAGCAAGATATG was 1.31; that for TGTGGGCGGGTGCAGCTTCCACCTGCAAGG was -1.07.
With AGTCCATGTGTTAAATAATAACACTCCCAT, the binding signal (log2 normalized intensity) was found to be 0.579.
TTTCTCAGCTCTCCTCTGCCTCCAGCTGTT: the binding signal (log2 normalized intensity) is -1.14.
The value for AGAATCATCTTTGAGCTGGATGACCTTTGT was 7.46; that for TGATAAGGAAACTTAAGTCTCAAAGGTCAG was 5.44; that for AAGGAATTTAGCCTTTAACCTGCAGTTTCC was 1.38.
Turning to GCCTGCCCCTCTGACCTCTCCTCCTACCTT, the binding signal (log2 normalized intensity) turned out to be 3.24.
As for CCTCCTGCCTTTCCCTTATCAGGACTTTGT, the binding signal (log2 normalized intensity) was 3.71.
Turning to CAATTTTCAGGGTTAAAAGTTCTGCTGAGT, the binding signal (log2 normalized intensity) turned out to be 0.862.
For TCGTCCCACAATGCATTCCATATGGATTAA, the binding signal (log2 normalized intensity) was 1.2.
Consider CCCCCCACCCCAGAAGTATGGGAAGCTGAG, for which the binding signal (log2 normalized intensity) was found to be 3.48.
In the case of AGCAGTCTGAGTAGGAAAGACTTGCTCATT, the binding signal (log2 normalized intensity) is -0.18.
In the case of AGACCTTTGACATCACCTAACTTGTGGCTG, the binding signal (log2 normalized intensity) came out at 0.674.
Consider TCATTTTACAGATAAGGAAACCAAGGTCCA, for which the binding signal (log2 normalized intensity) is 1.45.
In the case of AACACTTGTGTCAACCGTGTCAACATTGCG, the binding signal (log2 normalized intensity) was -1.19.
The value for GCCTCCAAAGTCCGCTTGCCTGAGGGTCAT was 2.41.
As to TAGGTACTATTATTAGAGTCCCTTTTTTAG, the binding signal (log2 normalized intensity) is -0.137.
As to TTTGATAATTACAGAGCAAGTAGAGCTGCT, the binding signal (log2 normalized intensity) is -1.09.
The same measure for AAAGTTTATGTGTGAGCCTATAATTGATGT: 1.5; for AGGGTTAAATCTCGGTATAATTCCTAAATA: -1.1.
On to TTACACCTGGGTGCTCCCTCCCCCTGCATG, for which the binding signal (log2 normalized intensity) was found to be 4.23.
As to GCCTGCACACGGTGTCCAGATTCCAGCCTC, the binding signal (log2 normalized intensity) is -1.
Regarding TCTATCCAGATGATCTTTACCCTGGAATGC, the binding signal (log2 normalized intensity) worked out at 2.55.
On to ATAGGGTCAGTCTTTGTTCTAGTAAGGCCT, for which the binding signal (log2 normalized intensity) was 1.71.
Regarding ATAGGAACATGAACTGAGCAGGCCTGGGCT, the binding signal (log2 normalized intensity) is -1.04.
In the case of GTGGACTTTGTCCTGTGGGCTGTAAAAATC, the binding signal (log2 normalized intensity) turned out to be 5.03.
As to GGGCCCCATCATGTGTACAGAGCTGAAGTT, the binding signal (log2 normalized intensity) amounted to 0.913.
For the sequence TCGAGGACAGGATGGGGGTGGGAGGCTGGG, the binding signal (log2 normalized intensity) was -1.07.
The value for CTATCATTATCTCTCACTGCAGAAACTCTG was 1.35; that for CGGATGACTCTTGGGCAGTCTAAAGTCTGA was 1.35; that for TACAAACACCAACCTGTTCCAAAGTCCACC was 6.05.
For the sequence GCAAAGGTTTCCTAAACAGTTACCGAGAGG, the binding signal (log2 normalized intensity) is -1.09.
